Results taken from ChEMBL document CHEMBL1201862, “PubChem BioAssay data set” (2004).
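Cells were grown in 96-well plates and exposed to each compound for 48 hours at five concentrations; endpoints were interpolated linearly between bracketing concentrations, or set to the highest concentration if not reached. GI50 marks 50% less growth.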 Calls of active or inactive are those of the source. Cut-off read from the data, not from the text of the source: active = GI50 up to about 1.1 µM and inactive = higher.

The compounds below were run on NCI-H322M (assay: growth of human tumour cells (NCI), 48 h).
With O=C(NCCCN(CCCCN(CCCNC(=O)c1cc(S(=O)(=O)O)cc(O)c1O)C(=O)c1cc(S(=O)(=O)O)cc(O)c1O)C(=O)c1cc(S(=O)(=O)O)cc(O)c1O)c1cc(S(=O)(=O)O)cc(O)c1O the GI50 was inactive: > 100 µM.
In the case of O=[N+]([O-])c1cc(I)cc(/C=N/NS(=O)(=O)c2ccc(Cl)cc2)c1O, the GI50 is reported as inactive: 27.1 µM.
For O=C1CCCc2c1c1c(n2Cc2ccccc2)-c2ccccc2C1=O, the GI50 was inactive: 10.7 µM.
For Fc1c(F)c(C(F)(F)F)c(F)c(F)c1N/N=C/c1cn(Cc2ccccc2)c2ccccc12, the GI50 was inactive: 21.4 µM.
In the case of COc1ccc(CCCCNCc2cccc(CNCCCCc3ccc(OC)cc3)c2)cc1, the GI50 is reported as inactive: 1.84 µM.
With CC(=O)Nc1ccc(-c2nnc(SCC(=O)Nc3ccccc3C)o2)cc1 the GI50 was inactive: > 100 µM.
For O=C(c1ccccc1)N1N=C(C(F)(F)F)CC1(O)C(F)(F)F (configuration not stated), the GI50 was inactive: > 100 µM.
With CC(C)(CCC(C)(C)N1OC1c1ccccc1)N1OC1c1ccccc1 (configuration not stated) the GI50 was inactive: 31.5 µM.
In the case of O=C1N(Cc2ccccc2)C2CSCC2N1Cc1ccccc1 (configuration not stated), the GI50 is reported as inactive: 57.1 µM.
In the case of Cc1ccc(C(=O)O)c(/C=C2\Cc3cc(C)cc(C)c3C2=O)c1, the GI50 is reported as inactive: > 100 µM.
CCOC(=O)NC(=O)c1cn(-c2ccc(CCOC(=O)CCCCCCCCC(=O)OCCc3ccc(-n4cc(C(=O)NC(=O)OCC)c(=O)[nH]c4=O)cc3)cc2)c(=O)[nH]c1=O was tested, and the GI50 was inactive: 90.2 µM.
For CC1OC(OC2C(OC(=O)[C@]34CCC(C)(C)C[C@H]3C3=CC[C@@H]5[C@@]6(C)CC[C@H](OC7OC(C(=O)O)C(O)C(O)C7O)C(C)(C)[C@@H]6CC[C@@]5(C)[C@]3(C)C[C@H]4O)OCC(O)C2O)C(O)C(O)C1OC1OCC(OC2OCC(O)C(O)C2O)C(O)C1O (some centres not stated), the GI50 was inactive: 2.74 µM.
In the case of CCOC(=O)CCC(NC(=O)c1ccc(/N=C/c2nc3ccccc3nc2-c2ccccc2)cc1)C(=O)OCC (configuration not stated), the GI50 is reported as inactive: > 100 µM.
With Cc1ccccc1NC(=O)Cc1csc2[n+]1C(=O)/C(=C/c1ccc([N+](=O)[O-])cc1)S2 the GI50 was inactive: 43.4 µM.
In the case of O=C(NC1=C(Cl)C(=O)c2ccccc2C1=O)C(=O)C(C(=O)c1ccc2ccccc2c1)C1OC(=O)c2ccccc21 (configuration not stated), the GI50 is reported as inactive: 3.07 µM.
With CNC(=O)c1nnn(Cc2ccccc2)c1S the GI50 was inactive: > 100 µM.
C[N+]1(C)C/C(=C\C=C\c2ccccc2)C(=O)/C(=C/C=C/c2ccccc2)C1 was tested, and the GI50 was inactive: 32.4 µM.
In the case of O=C(CN1CCOCC1)c1ccc2c(c1)oc(=O)n2CCN1CCOCC1, the GI50 is reported as inactive: > 100 µM.
CC(=O)N(C(C)=O)c1ncc(-n2nc(-c3ccccc3)cc2-c2ccccc2)c(-c2ccccc2)n1 was tested, and the GI50 was inactive: > 10 µM.
For CCOC(=O)C(NCc1cccc(C(F)(F)F)c1)(NC(=O)CC)C(F)(F)F (configuration not stated), the GI50 was inactive: > 100 µM.
CN(C)C(=O)C(F)(F)C(c1ccccc1Br)C1C(=O)N(C)C(=O)N(C)C1=O (configuration not stated) was tested, and the GI50 was inactive: > 100 µM.
O=C1C2CC=CCC2C(=O)N1n1c(Cc2ccccc2)n[nH]c1=O (configuration not stated) was tested, and the GI50 was inactive: > 100 µM.
In the case of CC(Cc1cccc2c1Nc1ccccc1S2)N(C)CCO (configuration not stated), the GI50 is reported as inactive: > 100 µM.
For COc1ccc(/C=C/c2cc(OC)c(OC)c(OC)c2)cc1O[Si](C)(C)C(C)(C)C, the GI50 was inactive: 9.35 µM.
For CC(=C(c1ccccc1)c1ccccc1)N1C(=O)CC(=O)N1C, the GI50 was inactive: > 100 µM.
For CC1=N[C@](C)(C2CC3C=CC2C3=O)COC1=O (some centres not stated), the GI50 was inactive: > 100 µM.
In the case of Cc1ccccc1/C=N/C12CC3CC(CC(C3)C1)C2, the GI50 is reported as inactive: > 100 µM.
Cc1nc(-c2nc(C)c(C(=O)/C=C/c3ccc(N(C)C)cc3)s2)sc1C(=O)/C=C/c1ccc(N(C)C)cc1 was tested, and the GI50 was inactive: > 100 µM.
With CC(C)c1cc(C(C)C)c(P2(=O)CC3C(Cl)(Cl)C3(C)C2)c(C(C)C)c1 (configuration not stated) the GI50 was inactive: 15 µM.
In the case of CC1=Nc2nc3ccccc3n2C(C)(C)C1, the GI50 is reported as inactive: > 100 µM.
In the case of C=C(C)[C@@H](O)[C@H](O)C[C@H](C)C1CC[C@]2(C)C1=CC[C@@H]1[C@@]3(C)CC[C@@H](OC(C)=O)C(C)(C)[C@@H]3C[C@@H](OC3OC(COC(C)=O)C(O)C(O)C3O)[C@]12C (some centres not stated), the GI50 is reported as inactive: 2.18 µM.
For COc1cc(/C=C2/C(=O)N(C(=O)OC(C)C)C(Cc3cc(OC)c(OC)c(C)c3OC)C(=O)N2Cc2ccccc2)c(OC)c(C)c1OC (configuration not stated), the GI50 was inactive: 38.4 µM.
In the case of C=CC[C@H]1[C@@H](O[Si](C)(C)C(C)(C)C)[C@H](n2ccc(=O)[nH]c2=O)O[C@@H]1CO[Si](C)(C)C(C)(C)C, the GI50 is reported as inactive: 2.12 µM.
In the case of Cc1ccc2nc(-c3nccn3C)cc(C(=O)NC(C)CN(C)C)c2c1 (configuration not stated), the GI50 is reported as inactive: > 100 µM.
With Cc1cc2c(C)nn(Cc3ccccc3)c2c(C(N)=O)c1C the GI50 was inactive: > 100 µM.
In the case of C=C1c2nc3ccccc3n2C=C(c2ccc(Cl)cc2)N1c1ccccc1, the GI50 is reported as inactive: 20 µM.
For O=C(CSCC(=O)N/N=C\c1ccc(O)c(O)c1O)N/N=C\c1ccc(O)c(O)c1O, the GI50 was inactive: 23.7 µM.
In the case of O=S1(=O)C(c2ccccc2)=C(O)c2ccccc21, the GI50 is reported as inactive: > 100 µM.
O=c1cc(-c2cccnc2)[nH]c2cc3c(cc12)OCO3 was tested, and the GI50 was inactive: 6.58 µM.
In the case of CC(C)(C)n1c(=O)[nH]n(C2NN=Cc3cccc4cccc2c34)c1=O (configuration not stated), the GI50 is reported as inactive: 40.8 µM.
Clc1ccc(C(Cc2cccc(Cl)c2)c2c(Cl)nc(N3CCNCC3)nc2Cl)cc1 (configuration not stated) was tested, and the GI50 was inactive: 16.8 µM.
In the case of CCOC(=O)NC(=O)c1cn(CCCOC(=O)NCCCCCCNC(=O)OCCCn2c(=O)c(C(=O)NC(=O)OCC)cn(C)c2=O)c(=O)n(C)c1=O, the GI50 is reported as inactive: > 100 µM.
